Test results: paper PMC9911399, “Two distinct binding modes provide the RNA-binding protein RbFox with extraordinary sequence specificity”
Where a chain is given by its changes, count along the chain named. The list shows a part of the results.

T1: RBFOX1 RRM RbFoxmut (Fox-RRM*) (Homo sapiens, UniProt Q9NWB1 109-208, R118D;E147R;N151S;E152T)
T1 sequence: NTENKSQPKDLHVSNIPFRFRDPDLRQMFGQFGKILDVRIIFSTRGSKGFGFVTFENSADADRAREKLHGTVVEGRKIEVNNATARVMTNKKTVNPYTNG

B1: UCGCGUA (DNA:RNA)
RNA: GGGAGACCGGAAUUCAGAUUGUCCUCGCGUAUUAAAUCCCGUCGUAGCCACCA
DNA 1: CAATCTGAATTCCGGTCTCCC
DNA 2: TGGTGGCTACGACGGGATT
B2: AUGCACC (DNA:RNA)
RNA: B1 RNA with U25A, C26U, G29A, U30C, A31C
DNA 1: CAATCTGAATTCCGGTCTCCC
DNA 2: TGGTGGCTACGACGGGATT
B3: GUGGAAU (DNA:RNA)
RNA: B1 RNA with U25G, C26U, C28G, G29A, U30A, A31U
DNA 1: CAATCTGAATTCCGGTCTCCC
DNA 2: TGGTGGCTACGACGGGATT
B4: AAAGUUU (DNA:RNA)
RNA: B1 RNA with U25A, C26A, G27A, C28G, G29U, A31U
DNA 1: CAATCTGAATTCCGGTCTCCC
DNA 2: TGGTGGCTACGACGGGATT
B5: UGGUACC (DNA:RNA)
RNA: B1 RNA with C26G, C28U, G29A, U30C, A31C
DNA 1: CAATCTGAATTCCGGTCTCCC
DNA 2: TGGTGGCTACGACGGGATT
B6: AAAAGGC (DNA:RNA)
RNA: B1 RNA with U25A, C26A, G27A, C28A, U30G, A31C
DNA 1: CAATCTGAATTCCGGTCTCCC
DNA 2: TGGTGGCTACGACGGGATT
B7: GAGAAUC (DNA:RNA)
RNA: B1 RNA with U25G, C26A, C28A, G29A, A31C
DNA 1: CAATCTGAATTCCGGTCTCCC
DNA 2: TGGTGGCTACGACGGGATT
B8: CUAAUUA (DNA:RNA)
RNA: B1 RNA with U25C, C26U, G27A, C28A, G29U
DNA 1: CAATCTGAATTCCGGTCTCCC
DNA 2: TGGTGGCTACGACGGGATT
B9: CUUCCCA (DNA:RNA)
RNA: B1 RNA with U25C, C26U, G27U, G29C, U30C
DNA 1: CAATCTGAATTCCGGTCTCCC
DNA 2: TGGTGGCTACGACGGGATT
B10: UGACUUU (DNA:RNA)
RNA: B1 RNA with C26G, G27A, G29U, A31U
DNA 1: CAATCTGAATTCCGGTCTCCC
DNA 2: TGGTGGCTACGACGGGATT
B11: CCUCAGC (DNA:RNA)
RNA: B1 RNA with U25C, G27U, G29A, U30G, A31C
DNA 1: CAATCTGAATTCCGGTCTCCC
DNA 2: TGGTGGCTACGACGGGATT
B12: GGCCUGG (DNA:RNA)
RNA: B1 RNA with U25G, C26G, G27C, G29U, U30G, A31G
DNA 1: CAATCTGAATTCCGGTCTCCC
DNA 2: TGGTGGCTACGACGGGATT
B13: CACGCAA (DNA:RNA)
RNA: B1 RNA with U25C, C26A, G27C, C28G, G29C, U30A
DNA 1: CAATCTGAATTCCGGTCTCCC
DNA 2: TGGTGGCTACGACGGGATT
B14: UUAGCUC (DNA:RNA)
RNA: B1 RNA with C26U, G27A, C28G, G29C, A31C
DNA 1: CAATCTGAATTCCGGTCTCCC
DNA 2: TGGTGGCTACGACGGGATT
B15: CCUUACU (DNA:RNA)
RNA: B1 RNA with U25C, G27U, C28U, G29A, U30C, A31U
DNA 1: CAATCTGAATTCCGGTCTCCC
DNA 2: TGGTGGCTACGACGGGATT
B16: CAAGUCC (DNA:RNA)
RNA: GGGAGACCGGAAUUCAGAUUGUCCCAAGUCCUUAAAUCCCGUCGUAGCCACCA
DNA 1: CAATCTGAATTCCGGTCTCCC
DNA 2: TGGTGGCTACGACGGGATT
B17: AGCAUUA (DNA:RNA)
RNA: B1 RNA with U25A, C26G, G27C, C28A, G29U
DNA 1: CAATCTGAATTCCGGTCTCCC
DNA 2: TGGTGGCTACGACGGGATT
B18: ACUGGCG (DNA:RNA)
RNA: B16 RNA with C25A, A26C, A27U, U29G, C31G
DNA 1: CAATCTGAATTCCGGTCTCCC
DNA 2: TGGTGGCTACGACGGGATT
B19: CGAGCCU (DNA:RNA)
RNA: B16 RNA with A26G, U29C, C31U
DNA 1: CAATCTGAATTCCGGTCTCCC
DNA 2: TGGTGGCTACGACGGGATT
B20: CAGGGUG (DNA:RNA)
RNA: B16 RNA with A27G, U29G, C30U, C31G
DNA 1: CAATCTGAATTCCGGTCTCCC
DNA 2: TGGTGGCTACGACGGGATT

Biological target: T1, RBFOX1 RRM RbFoxmut (Fox-RRM*)
Assay: EMSA; HiTS-Eq, 1 nM pool, 10 min; buffer printed only for the single-RNA assays: 10 mM Tris pH 7.5, 150 mM NaCl, 3.4 mM EDTA, 0.001% NP-40, 30 C
Conditions: tags: His6 N-terminal (pET28a); label: 5' 32P
How it was run: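 Purified RbFox RRM, wild type or mutant, was incubated for 10 min in 50 µL with 1 nM of a 5′-radiolabelled RNA pool carrying 7 randomized nucleotides, whose flanks were annealed to DNA oligonucleotides, over a series of increasing protein concentrations. Unbound RNA was resolved on 8% native PAGE, cut out, reverse-transcribed, barcoded by PCR and sequenced on an Illumina HiSeq 2500. Relative association constants were derived from changes in read counts for each RNA species versus the control reaction and normalised to the cognate motif.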

Binder | binding signal
B1 | 0.123 KA relative to UGCAUGU
B2 | 0.132 KA relative to UGCAUGU
B3 | 0.129 KA relative to UGCAUGU
B4 | 0.103 KA relative to UGCAUGU
B5 | 0.133 KA relative to UGCAUGU
B6 | 0.0727 KA relative to UGCAUGU
B7 | 0.247 KA relative to UGCAUGU
B8 | 0.117 KA relative to UGCAUGU
B9 | 0.0653 KA relative to UGCAUGU
B10 | 0.0741 KA relative to UGCAUGU
B11 | 0.101 KA relative to UGCAUGU
B12 | 0.158 KA relative to UGCAUGU
B13 | 0.0878 KA relative to UGCAUGU
B14 | 0.0847 KA relative to UGCAUGU
B15 | 0.0968 KA relative to UGCAUGU
B16 | 0.0705 KA relative to UGCAUGU
B17 | 0.138 KA relative to UGCAUGU
B18 | 0.146 KA relative to UGCAUGU
B19 | 0.103 KA relative to UGCAUGU
B20 | 0.166 KA relative to UGCAUGU
